Data taken from PubChem BioAssay AID1240 (Sanford-Burnham Center for Chemical Genomics, 2008).
About 800 (1.6%) of roughly 50,000 compounds showed an effect of 50% or more. Some of the results follow.

Target: Bcl-2-like protein 10 (Homo sapiens) (UniProt Q9HD36)
Assay: Phenotype converters, Bcl-B/TR3 peptide binding displacement, primary biochemical FP (AID 1240);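 also: 0% = Bcl-B with tracer peptide and DMSO and 100% = tracer peptide lacking Bcl-B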
Settings: GST-Bcl-B / FITC-TR3 peptide fluorescence polarization; stronger effect = higher value; compound at 3.75 mg/L

UniProt Q9HD36, sequence (Q9HD36 whole entry, looked up): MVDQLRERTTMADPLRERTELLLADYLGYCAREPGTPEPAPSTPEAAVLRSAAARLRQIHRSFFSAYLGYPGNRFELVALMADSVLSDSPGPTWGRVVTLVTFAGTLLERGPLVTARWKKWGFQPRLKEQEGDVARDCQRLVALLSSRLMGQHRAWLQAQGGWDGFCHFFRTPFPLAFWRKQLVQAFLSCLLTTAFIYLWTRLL

Row | Compound | displacement
1 | O=C(NNC(=O)c1cccc(Cl)c1)c1cccnc1 | -5.2%
2 | COc1ccccc1/C=N/NC(=O)CSc1nc(C)cc(C)n1 | -0.9%
3 | Cc1ccc(S(=O)(=O)NCCCNc2ccc([N+](=O)[O-])cc2)cc1 | 7.1%
4 | Cc1[nH]c2ccccc2c1/C=N/NC(=O)c1cccc([N+](=O)[O-])c1 | 0.7%
5 | Cc1ccc(-n2nc3cc(C)c(NC(=O)c4cccnc4)cc3n2)cc1 | -2.2%
6 | O=C(/C=C/c1ccco1)Nc1ccc(-c2nc3ccccc3s2)c(O)c1 | -33.1%
7 | Cc1c(NC(=O)c2cccs2)cccc1[N+](=O)[O-] | 9.2%
8 | Cc1ccc(OCC(=O)Nc2ccc3c(c2)OCCO3)c(Br)c1 | 9.5%
9 | CC(=O)NC(c1ccc(Cl)cc1)c1c(O)ccc2ccccc12 (configuration not stated) | -11.5%
10 | CCCS(=O)(=O)C(=C(Nc1ccc(OC)cc1)Nc1ccc(OC)cc1)S(=O)(=O)CCC | 15%
11 | O=C(Nc1ccc(NC(=O)c2cccc3ccccc23)cc1)c1ccc(Br)cc1 | 7%
12 | O=C(/C=C/c1ccc(OCc2ccccc2)cc1)c1ccc(Cl)cc1 | 5.4%
13 | COC(=O)c1ccccc1NC(=O)CSc1ncn[nH]1 | 10.1%
14 | COC(=O)c1cc(C(=O)Nc2ccc(OC)cc2OC)cc([N+](=O)[O-])c1 | 5.9%
15 | COc1ccc(Cl)cc1C(=O)Nc1ccc(C)cc1C | 10.1%
16 | CCOC(=O)c1c(NC(=S)NC(=O)c2ccc(F)cc2)sc2c1CCCCC2 | 14.6%
17 | Cc1ccc2nc(N/N=C\c3ccc([N+](=O)[O-])o3)nc(-c3ccccc3)c2c1 | 32.7%
18 | COc1cc(NC(=O)c2cnn3c(C(F)(F)F)cc(-c4cccs4)nc23)c(OC)cc1Cl | 3.8%
19 | COc1ccc(C(=O)N2CCN(Cc3cccc4ccccc34)CC2)cc1OC | -5.2%
20 | O=C(CC1c2ccccc2Oc2ccccc21)NCCOc1ccccc1 | 15.9%
21 | COc1cc(OC)cc(C(=O)N2CCN(Cc3ccccc3OC)CC2)c1 | 6.3%
22 | CSCCC(N=C1NC(C)(C)Cc2c1ccc1ccccc21)C(=O)O (configuration not stated) | -7.1%

Row | Compound | displacement
23 | CC(=O)CC1[C@@]2(C)CCCC(C)(C)C2CC[C@@]1(C)O (some centres not stated) | -3.5%
24 | CC1CCCC(C)N1C(=O)c1nn2c(c1Cl)NC(c1cccs1)CC2C(F)(F)F (configuration not stated) | -0.6%
25 | CC1=NN(c2cccc(C(=O)O)c2)C(=O)/C1=C\c1ccc(-c2cc([N+](=O)[O-])ccc2C)o1 | 32.4%
26 | COC(=O)c1ccc(Oc2ccc(/C=C3/SC(=S)N(C)C3=O)cc2OC)c([N+](=O)[O-])c1 | 7.2%
27 | CCC(=O)n1/c(=N/C(=N)N)nc(C)c2ccc(C)cc21 | -2.6%
28 | O=C(Nc1c[nH]c(=O)[nH]c1=O)c1ccc(-c2ccccc2)cc1 | 5%
29 | O=C(CSc1nc2ccccc2c(=O)n1-c1ccccc1)c1cc(Cl)sc1Cl | 5%
30 | NC(=O)NC(c1ccccc1)c1coc2ccccc12 (configuration not stated) | 28.4%
31 | O=C(Nc1ccccc1C(=O)NCc1ccco1)c1ccco1 | -18.9%
32 | S=C(Nc1ccccc1)N1CCN(C(c2ccccc2)c2ccccc2)CC1 | 4.6%
33 | O=C(Nc1ccc(OCc2ccccc2)cc1)c1ccccc1Br | 14.1%
34 | COc1cc(C2NC(=S)NC(C)=C2C(=O)Nc2cccc(Cl)c2)ccc1O (configuration not stated) | 18.1%
35 | CCN(CC)c1ccc(N2C(=O)/C(=C/c3cc(OC)c(OC)c(OC)c3)SC2=S)cc1 | 1.6%
36 | COc1ccc(NC(=O)CSc2nnnn2-c2ccccc2)c([N+](=O)[O-])c1 | 3.2%
37 | CC1=C(C(=O)Nc2ccccc2)C(c2ccccc2)n2c(s/c(=C/c3ccc(F)cc3)c2=O)=N1 (configuration not stated) | 49.8%
38 | COc1cccc(CN2CCN(C3CCCCCC3)CC2)c1OC | -18.1%
39 | COc1ccc(Cl)cc1/C=C(/C#N)C(=O)Nc1cccc(Br)c1 | 14.8%
40 | Cc1c(Cc2ccccc2)c(=O)oc2cc(OCC(=O)N(C)C)ccc12 | -4.4%
41 | CC(Oc1ccccc1)C(=O)Nc1cc(C(=O)O)cc(C(=O)O)c1 (configuration not stated) | 12.4%
42 | Cc1cc(C)c(/C=N/n2cnnc2)cc1C | -2.2%
43 | COC(=O)c1ccccc1NC(=O)COc1ccc(C)cc1 | 11.6%
44 | O=[N+]([O-])c1ccc(Cl)c(S(=O)(=O)Nc2ccccn2)c1 | -6.2%

Row | Compound | displacement
45 | COc1ccc(NC(=O)c2ccc(C)c([N+](=O)[O-])c2)cc1 | 13.7%
46 | CCc1cc(=O)oc2cc(OCc3ccccc3Cl)ccc12 | -1.9%
47 | Cc1cc(C)c2nc(NC(=O)c3ccco3)sc2c1 | -3.9%
48 | CC(=O)NC1=NC(=O)/C(=C\c2ccc(N(C)C)cc2)S1 | -23.2%
49 | CN(C)c1ccc(/C=C(\C#N)c2nc(C#N)c(N)c(C#N)c2N)cc1 | -31.9%
50 | O=S(=O)(c1ccc(Cl)cc1Cl)N1CCN(c2ccccc2)CC1 | -7.4%
51 | COc1cccc(N(CC(=O)Nc2cc(OC)ccc2OC)S(=O)(=O)c2ccccc2)c1 | -10.2%
52 | COc1ccc(S(=O)(=O)N2CCN(C3CCCC3)CC2)cc1 | -12.4%
53 | O=C(NCc1ccccn1)C(=O)Nc1ccc(F)cc1 | -3.1%
54 | CCCCCOC(=O)C1=C(C)NC(=S)NC1c1ccccc1 (configuration not stated) | 3.3%
55 | CCOC(=O)Oc1ccc2c(=O)c(Oc3ccccc3Br)coc2c1 | 13.4%
56 | COc1ccc(CCN2C(=O)CSC2c2cccc([N+](=O)[O-])c2)cc1OC (configuration not stated) | -8.5%
57 | CC1(C)CC(NC(=O)CN2CCN(CC(=O)NC3CC(C)(C)NC(C)(C)C3)CC2)CC(C)(C)N1 | 5.2%
58 | Cc1cccc(C2(c3cccc(C)c3)CC2C(=O)N2CCCCC2)c1 (configuration not stated) | -2.3%
59 | COc1cc(/C=C2\SC(=S)N(C)C2=O)cc(Br)c1O | -47.9%
60 | CC(=O)OC1(C#CCl)CCCCC1 | -8.7%
61 | O=C(Oc1ccc2c(=O)c(Oc3ccccc3Br)coc2c1)c1ccccc1 | 1.6%
62 | O=C1NC(=O)N(c2ccccc2)C(=O)/C1=C\c1cccn1-c1cccc([N+](=O)[O-])c1 | -2.6%
63 | COc1ccccc1NC(=O)C1=C(C)NC(=S)NC1c1ccccc1F (configuration not stated) | -19.5%
64 | COC(=O)c1c(NC(=O)c2ccc(C)c([N+](=O)[O-])c2)sc2c1CCC2 | -2.9%
65 | O=C(NN1C(=O)C2CCCCC2C1=O)c1ccccc1Cl (configuration not stated) | 4.9%
66 | O=C(c1ccc(Cl)cc1)N1CCN(c2ccc([N+](=O)[O-])c(N3CCOCC3)c2)CC1 | 8.8%

Row | Compound | displacement
67 | CC(=O)N(C)c1ccc(NC(=O)c2ccc(C(=O)Nc3ccc(N(C)C(C)=O)cc3)cc2)cc1 | 8.5%
68 | C=CCn1c(SCC(=O)NCCO)nc2sc3c(c2c1=O)CCCC3 | 4.4%
69 | Cc1ccc(N2CC(C(=O)Nc3cccc(Cl)c3C)CC2=O)cc1 (configuration not stated) | 8%
70 | COc1ccc(CCNC(=O)c2ccccc2F)cc1OC | -7.4%
71 | Cc1ccc(C2/C(=C(\O)c3ccccc3)C(=O)C(=O)N2CCCCCC(=O)O)cc1 (configuration not stated) | -2.3%
72 | CCOC(=O)c1c(C)oc2ccc(NS(=O)(=O)c3ccc4ccccc4c3)cc12 | 3.6%
73 | COC(=O)C1=C(C)NC2=C(C(=O)CCC2)C1c1ccc(I)cc1 (configuration not stated) | 3.1%
74 | CC1(C)CC(=O)c2cnc(NC(=O)C3CCCC3)nc2C1 | -5.1%
75 | COc1cccc(NC(=O)C2C(c3ccccc3)C2(Cl)Cl)c1 (configuration not stated) | 1.8%
76 | CC(=O)c1ccc(NC(=S)NC(NC(=O)c2ccco2)C(Cl)(Cl)Cl)cc1 (configuration not stated) | 3%
77 | OCCCNC(Nc1ccccc1)=C(c1ccccc1)c1ccccc1 | -8.4%
78 | O=C(Nc1ccccc1F)c1cc(-c2ccco2)nc2ccccc12 | 5.2%
79 | Cc1cccc(C(=O)Nc2sc3c(c2C(=O)N2CCN(C)CC2)CCCCC3)c1 | 5.6%
80 | CCn1ccnc1C(O)c1ccccc1 (configuration not stated) | 3.3%
81 | COc1ccc(C2CC(=O)C3=C(C2)Nc2ccccc2NC3c2cccc(Oc3ccccc3)c2)cc1OC (configuration not stated) | 5.3%
82 | CN(Cc1ccccc1)C1CC(=O)N(c2cc(Cl)cc(Cl)c2)C1=O (configuration not stated) | 3.8%
83 | CCOC(=O)C(=CNc1ccccc1[N+](=O)[O-])C(=O)OCC | -10.4%
84 | CC1CN(S(=O)(=O)c2ccc3c(c2)C(=O)c2cc(S(=O)(=O)N4CC(C)OC(C)C4)ccc2-3)CC(C)O1 (configuration not stated) | -6%
85 | CC1=NN(C(=O)c2cccc(O)c2)C(O)(c2ccc(Br)cc2)C1 (configuration not stated) | 2.8%
86 | CCOC(=O)NC12CC3CC(C1)CC(C(F)(F)F)(C3)C2 | 3.2%
87 | Cc1ccc(-c2nc3ccccc3o2)cc1NC(=O)/C=C/c1cccc([N+](=O)[O-])c1 | 74.2%
88 | FC1(F)C2C3OC(C4C5C=CC(O5)C34)C2C1(F)F (configuration not stated) | 12.8%

Row | Compound | displacement
89 | CC(C)COc1ccc(C(=O)Nc2cc(Cl)ccc2Cl)cc1 | 13.4%
90 | CC1(C)CC(=O)C2=C(C1)Nc1ccccc1NC2c1ccc(-c2ccccc2[N+](=O)[O-])o1 (configuration not stated) | -15.9%
91 | O=C(O)CSc1nnc2c(n1)[nH]c1ccccc12 | 3.1%
92 | Cn1c2ccc(Br)cc2c2n[nH]c(=S)nc21 | -8.1%
93 | COC(=O)c1ccc(N2CCOCC2)c([N+](=O)[O-])c1 | 9.5%
94 | CCOc1ccc(Br)cc1C=Nc1c(C)n(C)n(-c2ccccc2)c1=O | -1.8%
95 | COCCOC(=O)c1ccc(NC(=O)c2ccc(C)c([N+](=O)[O-])c2)cc1 | -8.6%
96 | CSc1nsc(SC)c1NC(=O)OCc1ccccc1 | 17.7%
97 | COc1ccc2c(c1)CCC/C2=N/OC(=O)c1ccc(OC)c([N+](=O)[O-])c1 | -6.5%
98 | O=C1C(Cl)=C(NCCc2ccccc2)C(=O)N1c1cccc(Cl)c1Cl | 15.4%
99 | COc1ccc(N(CC(=O)NC(C)C)S(C)(=O)=O)c(OC)c1 | -1.9%
100 | COc1ccc(OC)c(NC(=S)NC(=O)c2ccccc2Cl)c1 | 11.8%
101 | Cc1ccc(N2C(=O)CC(N3CCC(C)CC3)C2=O)cc1 (configuration not stated) | 3.3%
102 | CCOC(=O)c1ccccc1NC(=O)CCc1ccccc1 | -1.5%
103 | O=C(CSc1n[nH]c(=O)[nH]c1=O)c1ccc(Cl)cc1 | -6.1%
104 | CCOC(=O)C1=C(C)N=c2s/c(=C/c3c[nH]c4ccccc34)c(=O)n2C1c1ccc(F)cc1 (configuration not stated) | 9.1%
105 | COc1ccc(N2C(=O)c3ccccc3NC2c2cc(OC)c(OC)c(OC)c2)cc1 (configuration not stated) | 10.3%
106 | CCOc1ccc(NC(=O)CN(c2ccc(OC)cc2)S(C)(=O)=O)cc1 | -0.1%
107 | CCc1cccc(NC2(c3ccccc3)C(=O)c3ccccc3C2=O)c1 | -0.9%
